Results reported in the supplement of paper PMC9446081.
About 220 (0.56%) of roughly 39,000 compounds showed activity. The list shows a part of the results.

What follows are compounds tested on Escherichia coli K-12 BW25113 (assay: relative growth (OD600 normalised to plate interquartile mean) (fraction); higher = less growth inhibition, active = 0.2 or less). Details: 50 µM; LB; incubation time: overnight (16-24 h).
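Also: static incubation at 37 °C against the wild-type strain, values averaged over two biological replicates.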

**Q.** `O=C(/C=C/c1ccc(CNc2ccc([C@H]3O[C@@H](CSc4ccncc4)C[C@H](c4ccccc4)O3)cc2)cc1)NO` was tested. Which relative growth did it give?
**A.** inactive: 0.976

**Q.** How did the relative growth turn out when `Nc1cnc2ccc(Cl)nn12` was run?
**A.** inactive: 1.01

**Q.** For `C[C@H]1CN([C@@H](C)CO)C(=O)c2cc(NC(=O)Cc3ccccc3)ccc2O[C@H]1CN(C)C(=O)Nc1ccc(C(F)(F)F)cc1`, which relative growth is on record?
**A.** inactive: 0.984

**Q.** `C[C@H](CO)N1C[C@H](C)[C@@H](CN(C)Cc2ccc(Oc3ccccc3)cc2)Oc2ccc(NC(=O)CCC(F)(F)F)cc2C1=O` was tested. Which relative growth did it give?
**A.** inactive: 0.997

**Q.** Which relative growth does the source give for `C[C@@H]1CN([C@H](C)CO)S(=O)(=O)c2ccc(C#CCN(C)C)cc2O[C@@H]1CN(C)S(=O)(=O)c1cccc(F)c1` here?
**A.** inactive: 1

**Q.** For `CN(C)C(=O)C[C@@H]1CC[C@H]2[C@@H](COc3ccc(NS(=O)(=O)c4cccc(F)c4)cc3C(=O)N2C)O1`, which relative growth is on record?
**A.** inactive: 0.975

**Q.** For `Cc1noc(C)c1S(=O)(=O)Nc1cccc2c1O[C@H](CN(C)S(=O)(=O)c1ccc(Cl)cc1)[C@H](C)CN([C@@H](C)CO)C2=O`, which relative growth is on record?
**A.** inactive: 0.998

**Q.** Which relative growth does the source give for `COc1ccc(S(=O)(=O)Nc2ccc3c(c2)C(=O)N([C@@H](C)CO)C[C@@H](C)[C@H](CN(C)C(=O)CCC(F)(F)F)OCCCC[C@@H](C)O3)cc1` here?
**A.** inactive: 0.988

**Q.** `C[C@@H]1CCCCO[C@@H](CN(C)C(=O)CCCN(C)C)[C@H](C)CN([C@H](C)CO)C(=O)c2cc(NC(=O)Nc3cccc4ccccc34)ccc2O1` was tested. Which relative growth did it give?
**A.** inactive: 0.996

**Q.** With `COc1ccc(NC(=O)Nc2ccc3c(c2)C(=O)N([C@@H](C)CO)C[C@@H](C)[C@@H](CN(C)C(=O)Nc2ccc(OC)cc2)OCCCC[C@H](C)O3)cc1` as the compound, how does the relative growth read?
**A.** inactive: 1

**Q.** Which relative growth does the source give for `CO[C@@H](CN(C)S(=O)(=O)c1ccc(C)cc1)[C@H](C)CN([C@@H](C)CO)S(=O)(=O)c1cccc(Cl)c1` here?
**A.** inactive: 1.04

**Q.** How did the relative growth turn out when `CC[C@@H](O)CNNC(=O)OC(C)(C)C` was run?
**A.** inactive: 0.992

**Q.** With `CN(C)CCCCNC(=O)[C@@H]1C[C@@H]2C(=O)N[C@@H](CCCCN(C)C)C(=O)N2[C@@H]1c1cccc(OCCO)c1` as the compound, how does the relative growth read?
**A.** inactive: 0.998

**Q.** For `Cl.N=C(N)n1cccn1`, which relative growth is on record?
**A.** active: 0.042

**Q.** For `COc1ccc(NC(=O)Nc2cccc3c2O[C@@H](CN(C)C(=O)Nc2ccc(C(F)(F)F)cc2)[C@H](C)CN([C@@H](C)CO)C3=O)cc1`, which relative growth is on record?
**A.** inactive: 0.87

**Q.** For `O=C(NCC(=O)N1CC[C@H](N[C@H]2CC[C@@](O)(c3ccc(-c4ncccn4)cn3)CC2)C1)c1cccc(C(F)(F)F)c1`, which relative growth is on record?
**A.** inactive: 1.05

**Q.** With `COc1ccc(NC(=O)Nc2ccc3c(c2)C(=O)N([C@@H](C)CO)C[C@H](C)[C@H](CN(C)C(=O)Nc2ccc(OC)cc2)OCCCC[C@@H](C)O3)cc1` as the compound, how does the relative growth read?
**A.** inactive: 1.01

**Q.** With `COc1ccc(CN(C)C[C@H]2OCCCC[C@@H](C)Oc3ccc(NC(=O)Nc4ccc5c(c4)OCO5)cc3C(=O)N([C@H](C)CO)C[C@@H]2C)cc1` as the compound, how does the relative growth read?
**A.** inactive: 1

**Q.** How did the relative growth turn out when `CC(C)CC#Cc1cnc2c(c1)C(=O)N([C@H](C)CO)C[C@H](C)[C@@H](CN(C)C(=O)CN1CCOCC1)O2` was run?
**A.** inactive: 0.963

**Q.** With `COc1cc(O)cc(O)c1C(=O)c1ccccc1` as the compound, how does the relative growth read?
**A.** inactive: 0.746

**Q.** For `O=C(O)/C=C/c1cnc[nH]1`, which relative growth is on record?
**A.** inactive: 0.986

**Q.** `COc1ccc(S(=O)(=O)N(C)C[C@H]2Oc3ccc(NC(=O)CCN4CCOCC4)cc3C(=O)N([C@H](C)CO)C[C@@H]2C)cc1` was tested. Which relative growth did it give?
**A.** inactive: 0.978

**Q.** With `C[C@H]1CN([C@@H](C)CO)C(=O)Cc2cc(NS(=O)(=O)c3cn(C)cn3)ccc2O[C@H]1CN(C)S(=O)(=O)c1ccc(Cl)cc1` as the compound, how does the relative growth read?
**A.** inactive: 1

**Q.** With `CC(=O)N(C)C[C@H]1Oc2ncc(C#CC(C)(C)O)cc2C(=O)N([C@@H](C)CO)C[C@@H]1C` as the compound, how does the relative growth read?
**A.** inactive: 0.983

**Q.** `Cc1cc(C(=O)Nc2cccc3c2O[C@@H](CN(C)Cc2ccc(Oc4ccccc4)cc2)[C@H](C)CN([C@H](C)CO)C3=O)n(C)n1` was tested. Which relative growth did it give?
**A.** inactive: 1

**Q.** Which relative growth does the source give for `COc1ccc(CN(C)C[C@H]2OCCCC[C@H](C)Oc3ccc(NS(=O)(=O)c4c(C)noc4C)cc3C(=O)N([C@H](C)CO)C[C@@H]2C)cc1` here?
**A.** inactive: 1.02

**Q.** How did the relative growth turn out when `CN(C)CCN1CCc2ncc(Cn3cncn3)n2CC1` was run?
**A.** inactive: 0.99

**Q.** How did the relative growth turn out when `CC(C)CC#Cc1ccc2c(c1)O[C@@H](CN(C)CC1CCOCC1)[C@@H](C)CN([C@@H](C)CO)S2(=O)=O` was run?
**A.** inactive: 1.01

**Q.** How did the relative growth turn out when `CC(C)(C)[S@@](=O)N1Cc2cc(C(=O)N3CCCCC3)nc(-c3cccc(-c4cccc(C#N)c4)c3)c2[C@H]1CCO` was run?
**A.** inactive: 1.01

**Q.** With `O=C(C[C@H]1C[C@H]2c3cc(NS(=O)(=O)c4ccc(F)cc4)ccc3O[C@H]2[C@H](CO)O1)NCc1cccc(F)c1` as the compound, how does the relative growth read?
**A.** inactive: 1.01

**Q.** Which relative growth does the source give for `C[C@@H]1CN([C@@H](C)CO)C(=O)c2cccc(NC(=O)c3cnccn3)c2O[C@@H]1CN(C)Cc1ccccc1` here?
**A.** inactive: 0.99

**Q.** For `C[C@H]1CN([C@@H](C)CO)C(=O)c2cc(NC(=O)Cn3cnnn3)ccc2O[C@@H]1CN(C)C(=O)Nc1ccc2c(c1)OCO2`, which relative growth is on record?
**A.** inactive: 0.991

**Q.** With `CCOC(=O)[C@H]1C/C=C/C[C@H](C(=O)OCC)C(=O)O[C@H]2[C@@H](OC)O[C@H](CO)[C@@H](OC(=O)Nc3ccc(OC)cc3)[C@@H]2OC1=O` as the compound, how does the relative growth read?
**A.** inactive: 1.03

**Q.** For `C[C@H]1CN([C@@H](C)CO)C(=O)Cc2cc(NC(=O)Nc3ccc(C(F)(F)F)cc3)ccc2O[C@@H]1CN(C)Cc1ccc(Cl)c(Cl)c1`, which relative growth is on record?
**A.** inactive: 0.979

**Q.** How did the relative growth turn out when `COC(=O)C[C@@H]1CC[C@@H]2[C@@H](COc3ccc(NS(=O)(=O)c4ccccc4Cl)cc3C(=O)N2C)O1` was run?
**A.** inactive: 1.03

**Q.** `CC(C)CS(=O)(=O)N1CCC2(CC1)[C@H]1CN(c3ncccn3)C[C@@H]1C(=O)N2C` was tested. Which relative growth did it give?
**A.** inactive: 0.985

**Q.** For `COc1cc(/C=C/C(=O)CC2=N/C(=N/CCc3ccccc3)S[C@H](c3ccc(O)c(OC)c3)C2)ccc1O`, which relative growth is on record?
**A.** inactive: 1.03

**Q.** How did the relative growth turn out when `C[Si](C)(C)C#CC(=O)NO` was run?
**A.** inactive: 0.998

**Q.** For `C[C@H](CO)N1C[C@H](C)[C@@H](CN(C)C(=O)Nc2ccc3c(c2)OCO3)OCCCC[C@H](C)Oc2ccc(NC(=O)CCC(F)(F)F)cc2C1=O`, which relative growth is on record?
**A.** inactive: 1

**Q.** How did the relative growth turn out when `Cn1cnc(S(=O)(=O)N[C@H]2CC[C@@H](CC(=O)Nc3ccccc3)O[C@H]2CO)c1` was run?
**A.** inactive: 1.02

**Q.** `COc1ccc(S(=O)(=O)Nc2ccc3c(c2)C(=O)N([C@H](C)CO)C[C@@H](C)[C@H](CN(C)C(=O)Nc2ccc(F)cc2)OCCCC[C@H](C)O3)cc1` was tested. Which relative growth did it give?
**A.** inactive: 1.03

**Q.** `C[C@H]1CN([C@@H](C)CO)C(=O)c2cc(NS(=O)(=O)c3cn(C)cn3)ccc2O[C@@H]1CN(C)S(=O)(=O)c1cccs1` was tested. Which relative growth did it give?
**A.** inactive: 0.979

**Q.** With `C[C@H](CO)N1C[C@H](C)[C@@H](CN(C)S(=O)(=O)c2cn(C)cn2)Oc2c(NC(=O)C3CCCCC3)cccc2C1=O` as the compound, how does the relative growth read?
**A.** inactive: 1.03

**Q.** `COC[C@H]1CNN1C(=O)Nc1c(C)noc1C` was tested. Which relative growth did it give?
**A.** inactive: 1.02

**Q.** Which relative growth does the source give for `C=CCN1C(=O)[C@@]2(O[C@H](CCOC(=O)NCCCCCC(=O)NO)[C@@H]([Si](C)(C)c3ccc(OC)cc3)[C@@H]2C)c2cc(I)ccc21` here?
**A.** inactive: 1.03

**Q.** Which relative growth does the source give for `Cc1ccc(S(=O)(=O)Nc2ccc3c(c2)C(=O)N(C)[C@@H]2CC[C@@H](CC(=O)NCCc4ccncc4)O[C@@H]2CO3)cc1` here?
**A.** inactive: 0.993

**Q.** How did the relative growth turn out when `C[C@H]1CCCCO[C@H](CN(C)Cc2ccc(C(=O)O)cc2)[C@@H](C)CN([C@@H](C)CO)C(=O)c2cc(NS(=O)(=O)c3ccc(Cl)cc3)ccc2O1` was run?
**A.** inactive: 1.01

**Q.** For `COc1cccc(CNC(=O)C[C@@H]2CC[C@H]3[C@@H](COC[C@H](O)CN3S(=O)(=O)c3ccc(C)cc3)O2)c1`, which relative growth is on record?
**A.** inactive: 0.983

**Q.** `COc1ccc(CN(C)C[C@@H]2OCCCC[C@@H](C)Oc3ccc(NC(=O)Nc4ccccc4)cc3C(=O)N([C@H](C)CO)C[C@H]2C)cc1` was tested. Which relative growth did it give?
**A.** inactive: 0.998

**Q.** For `Cc1noc(C)c1NC(=O)N(C)C[C@@H]1OCCCC[C@H](C)Oc2ccc(NS(=O)(=O)c3cccs3)cc2C(=O)N([C@H](C)CO)C[C@@H]1C`, which relative growth is on record?
**A.** inactive: 1.01

**Q.** For `C[C@H]1CN([C@@H](C)CO)C(=O)c2cc(NC(=O)Cn3cnnn3)ccc2O[C@@H]1CN(C)S(=O)(=O)c1ccccc1`, which relative growth is on record?
**A.** inactive: 1.01

**Q.** How did the relative growth turn out when `CC(=O)O[C@@H]1[C@H](OC(C)=O)N(C)C(=O)N1C` was run?
**A.** inactive: 0.981

**Q.** How did the relative growth turn out when `O=C(CN1CCOCC1)N[C@@H]1CC[C@@H](CCNC(=O)C2CCC2)O[C@@H]1CO` was run?
**A.** inactive: 0.986

**Q.** `C[C@@H]1CCCCO[C@@H](CN(C)Cc2ccccc2)[C@H](C)CN([C@@H](C)CO)C(=O)c2cc(NC(=O)c3ccccc3)ccc2O1` was tested. Which relative growth did it give?
**A.** inactive: 0.995

**Q.** For `COc1ccc(NC(=O)Nc2ccc3c(c2)CC(=O)N([C@@H](C)CO)C[C@H](C)[C@@H](CN(C)Cc2ccc(Cl)c(Cl)c2)O3)cc1`, which relative growth is on record?
**A.** inactive: 0.989

**Q.** With `Cc1ccc(S(=O)(=O)N(C)C[C@H]2Oc3ccc(NS(=O)(=O)c4c(C)noc4C)cc3CC(=O)N([C@@H](C)CO)C[C@@H]2C)cc1` as the compound, how does the relative growth read?
**A.** inactive: 0.994

**Q.** `C[C@H]1CN([C@@H](C)CO)C(=O)Cc2cc(NC(=O)c3ccncc3)ccc2O[C@H]1CN(C)Cc1ccc(-c2ccccc2)cc1` was tested. Which relative growth did it give?
**A.** inactive: 0.979

**Q.** Which relative growth does the source give for `C[C@@H]1CN([C@@H](C)CO)C(=O)c2cc(NC(=O)c3ccccc3)ccc2O[C@@H](C)CCCCO[C@@H]1CN(C)C(=O)C1CCCCC1` here?
**A.** inactive: 1.02

**Q.** `COc1ccc(S(=O)(=O)Nc2ccc3c(c2)C(=O)N([C@@H](C)CO)C[C@H](C)[C@H](CN(C)C(=O)Nc2ccc(C(F)(F)F)cc2)OCCCC[C@@H](C)O3)cc1` was tested. Which relative growth did it give?
**A.** inactive: 1.05

**Q.** For `C[C@@H]1CCCCO[C@@H](CN(C)C(=O)Nc2ccc(C(F)(F)F)cc2)[C@H](C)CN([C@H](C)CO)C(=O)c2cc(NS(=O)(=O)c3ccc(F)cc3)ccc2O1`, which relative growth is on record?
**A.** inactive: 1.04
